The results in this text go back to paper PMC6919601, “Identification of Plasmodium dipeptidyl aminopeptidase allosteric inhibitors by high throughput screening” (PLoS ONE, 2019).

Hit rate of the full screen: of about 110,000 compounds, about 230 (0.21%) showed an effect of 50% or more. This is one part of the list.
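Further: 30 min substrate incubation versus DMSO and 10 µM JCP410 controls.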

This assay deals with DPAP1 (Plasmodium falciparum, UniProt Q8IIJ9). Kind of assay: primary screen, percent inhibition; read by cleavage of a fluorogenic dipeptide substrate; higher = more effect of the substance. More on the design: species or system P. falciparum D10 trophozoite lysates; single well.
DPAP1, sequence (Q8IIJ9 whole entry, looked up): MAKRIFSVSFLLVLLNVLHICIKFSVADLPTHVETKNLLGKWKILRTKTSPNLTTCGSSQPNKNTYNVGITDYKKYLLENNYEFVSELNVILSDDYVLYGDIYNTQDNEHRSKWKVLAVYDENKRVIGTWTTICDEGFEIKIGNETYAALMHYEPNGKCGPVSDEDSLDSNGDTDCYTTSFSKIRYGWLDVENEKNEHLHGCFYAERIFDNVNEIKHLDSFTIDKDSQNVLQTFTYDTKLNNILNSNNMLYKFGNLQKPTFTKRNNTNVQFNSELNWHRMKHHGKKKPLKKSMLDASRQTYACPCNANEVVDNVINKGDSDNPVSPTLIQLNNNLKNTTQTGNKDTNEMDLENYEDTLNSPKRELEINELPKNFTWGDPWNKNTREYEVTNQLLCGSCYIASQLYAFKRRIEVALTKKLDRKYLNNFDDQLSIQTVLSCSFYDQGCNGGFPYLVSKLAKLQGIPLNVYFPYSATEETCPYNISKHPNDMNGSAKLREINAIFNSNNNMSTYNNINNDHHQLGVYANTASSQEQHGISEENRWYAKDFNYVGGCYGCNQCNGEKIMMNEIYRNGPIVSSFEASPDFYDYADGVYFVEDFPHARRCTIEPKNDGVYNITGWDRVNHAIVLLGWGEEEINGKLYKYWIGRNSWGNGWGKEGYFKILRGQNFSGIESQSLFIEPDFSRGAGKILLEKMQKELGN
Consider `Cc1cc(OCC(O)CN2CCCC2)cc(C)c1Cl` (centres unmarked), for which the “% Inhibition @ 10 uM” value is recorded as -0.711%. The value for `CCOCCCNC(=O)c1ccc2c(c1)ncn2C1CCCC1` was -8.86%; that for `Cc1cccn2c(=O)c3cc(S(=O)(=O)c4ccc(Cl)cc4)c(=N)n(Cc4ccco4)c3nc12` was 0.343%. The value for `O=C(NCC1CCCO1)c1nc(CS(=O)(=O)c2ccccc2)no1` (centres unmarked) was -6.25%; that for `CN(CCCNC(=O)COCc1cc(-c2ccc(F)cc2)on1)Cc1ccccc1` was -3.25%. With `O=C(NCCOC12CC3CC(CC(C3)C1)C2)c1cc2c(s1)-c1ccccc1OC2`, the “% Inhibition @ 10 uM” value amounted to 3.45%. As to `CCOc1cc(C)c(S(=O)(=O)N2CC(C)OC(C)C2)cc1C` (centres unmarked), the “% Inhibition @ 10 uM” value is -6.44%. Regarding `CN(C)CCN(C)Cc1ccc([N+](=O)[O-])cc1`, the “% Inhibition @ 10 uM” value is recorded as 0.247%. The result for `Oc1nc(N2CCCCCC2)nc2ncn(Cc3ccccc3)c12` reads -3.52%. The value for `CC1(O)N(CCOC23CC4CC(CC(C4)C2)C3)C(=O)OC12CCCCC2` (centres unmarked) was -0.25%; that for `CCOC(=O)c1c(C)[nH]c(C)c1S(=O)(=O)N1CCN(C(=O)c2ccco2)CC1` was -4.74%.

As for `CC1(C)Cc2c(sc3ncn4nc(CSc5nc6ccccc6s5)nc4c23)C(C)(C)N1`, the “% Inhibition @ 10 uM” value is reported as 13.5%.

Regarding `CC(C)C[C@H](NC(=O)N1CCCc2ccccc21)C(=O)NCC#N`, the “% Inhibition @ 10 uM” value was -6.98%. Take `CCOc1ccc(C2NCCc3cc(OC)c(OC)cc32)cc1OC` (centres unmarked): the “% Inhibition @ 10 uM” value is on record as -4.97%.

As for `CC(=O)c1ccc(-c2nnc(-c3cccs3)o2)cc1`, the “% Inhibition @ 10 uM” value is recorded as -5.67%. `Cc1ccc(C)c(OCC(=O)Nc2cc(C)on2)c1`: the “% Inhibition @ 10 uM” value is listed as 2.46%. As for `CCN(CC)c1c(S(=O)(=O)c2ccc(Cl)cc2)cnc2cc3c(cc12)OCCO3`, the “% Inhibition @ 10 uM” value is -1.69%. The result for `CCCc1c(O)nc2ccc(C)cc2c1C` reads -6.22%; that for `O=C(COc1cccc2ccccc12)Nc1ccccc1Cl`, -3.05%. Regarding `O=C(CSCc1c(Cl)cccc1Cl)N1CCCC1`, the “% Inhibition @ 10 uM” value is -4.6%. The result for `Cc1cc2oc(=O)cc(C)c2c2occ(-c3ccccc3)c12` reads 5.35%. The value for `O=C(C1=C(O)C(=O)N(c2ncccn2)C1c1cccc(Cl)c1)c1ccco1` (centres unmarked) was 14.8%; that for `Fc1ccc(CNCc2ccccn2)cc1` was 6.47%. The value for `COc1ccc(/C=C(/NC(=O)c2cccc(C)c2)C(=O)Nc2ccc(OC)cc2)cc1` was 0.76%; that for `Cc1cc(C)cc(-n2nnc(-c3nc(-c4ccccc4)no3)c2N)c1` was -1.31%; that for `Cc1cc2nc(O)c(O)nc2cc1S(=O)(=O)N1CCN(CCOc2ccc(Cl)cc2)CC1` was 52.3%.

As for `CC(C)/N=C1\SC(CC(=O)Nc2ccc(Cl)cc2Cl)C(=O)N1C(C)C` (centres unmarked), the “% Inhibition @ 10 uM” value was -3.27%. The value for `CCCCNC(=O)c1cnn2c(C(F)F)cc(-c3ccccc3)nc12` was 4.08%; that for `O=C(Cn1nnc2sc3c(c2c1=O)CCCC3)c1cc2ccccc2o1` was 0.758%; that for `c1ccc(-c2nc(CN3CCOCC3)cs2)cc1` was -6.07%. Consider `O=C(c1ccc2c(c1)c(=O)oc1ccccc12)N1CCCCC1`, for which the “% Inhibition @ 10 uM” value stood at 0.0539%. The value for `COCCNC(=O)C(C)n1ncn2cccc2c1=O` (centres unmarked) was -4.26%; that for `O=C(CCc1cc(Cl)no1)Nc1nccs1` was 4%. With `CCC1=Nc2c(c(=O)[nH]c(=O)n2Cc2ccco2)C(C(F)(F)F)(C(F)(F)F)N1`, the “% Inhibition @ 10 uM” value is on record as -5.23%.

Consider `CCOC(=O)N1CCC(NC(=O)NCc2noc3ccc(C)cc23)CC1`, for which the “% Inhibition @ 10 uM” value is listed as 0.568%. In the case of `COc1ccccc1NC(=O)CSc1nc2sc3c(c2c(=O)n1C)CCCC3`, the “% Inhibition @ 10 uM” value is given as -2.68%. The value for `N#CCNC(=O)C(CCc1ccc(F)cc1F)NC(=O)OCc1ccccc1` (centres unmarked) was -3.48%.

Take `O=C1CC(N2CCSCC2)C(=O)N1c1ccc(N2C(=O)CC(N3CCSCC3)C2=O)cc1` (centres unmarked): the “% Inhibition @ 10 uM” value was -4.39%. The result for `COc1cc(/C=C2/NC(=O)N(c3ccc(Cl)cc3)C2=O)cc2c1OCO2` reads -4.05%; that for `COCC(C)NC(=O)CN1C(=O)c2ccccc2C1=O` (centres unmarked), -1.6%.

As to `O=C1C2CC=C(Cl)CC2C(=O)N1Cc1ccccc1` (centres unmarked), the “% Inhibition @ 10 uM” value is 0.408%. As for `COc1ccc2oc(=O)c(-c3nc(-c4nonc4N)no3)cc2c1`, the “% Inhibition @ 10 uM” value was 1.4%.

With `COc1cc(Cl)c(S(=O)(=O)N2CCN(c3ccccc3OC)CC2)cc1Cl`, the “% Inhibition @ 10 uM” value is reported as 4.25%. The result for `O=C(O)c1ccc(NS(=O)(=O)c2cccc(C(=O)Nc3cccc([N+](=O)[O-])c3)c2)cc1` reads -3.75%; that for `O=C(NCCCc1ccccc1)C1CCCN(S(=O)(=O)N2CCCCC2)C1` (centres unmarked), -6.89%; that for `NS(=O)(=O)c1ccc(CCN2C(=O)c3ccc(C45CC6CC(CC(C6)C4)C5)cc3C2=O)cc1`, 0.032%. The result for `O=C(Nc1c2c(nc3c1CCC3)CCCC2)c1ccncc1` reads -1.96%; that for `CC(C)(C)c1ccc(C(=O)Nc2nccs2)cc1Br`, 0.909%. For `COc1ccc(Br)cc1CNC(=O)c1cc2cccc3c2n1CC(C)S3` (centres unmarked), the “% Inhibition @ 10 uM” value came out at 0.796%. With `CCOC(=O)c1cnc2ccc(OC)cc2c1NCCO`, the “% Inhibition @ 10 uM” value is 0.275%.
